Test results published in PubChem BioAssay AID360 (National Center for Advancing Translational Sciences (NCATS), 2006).
The campaign covered roughly 48,000 compounds. About 550 (1.1%) were called active. Another 4% or so got no clear call; they are omitted. No stated cut-off is given here; in the data, active means potency below about 15 µM; inconclusive means mostly about 16 µM to 33 µM; inactive means weaker than that. Some of the results follow.

Target: Lysosomal acid glucosylceramidase (Homo sapiens) (UniProt P04062)
Chain of UniProt P04062 (P04062 whole entry, looked up): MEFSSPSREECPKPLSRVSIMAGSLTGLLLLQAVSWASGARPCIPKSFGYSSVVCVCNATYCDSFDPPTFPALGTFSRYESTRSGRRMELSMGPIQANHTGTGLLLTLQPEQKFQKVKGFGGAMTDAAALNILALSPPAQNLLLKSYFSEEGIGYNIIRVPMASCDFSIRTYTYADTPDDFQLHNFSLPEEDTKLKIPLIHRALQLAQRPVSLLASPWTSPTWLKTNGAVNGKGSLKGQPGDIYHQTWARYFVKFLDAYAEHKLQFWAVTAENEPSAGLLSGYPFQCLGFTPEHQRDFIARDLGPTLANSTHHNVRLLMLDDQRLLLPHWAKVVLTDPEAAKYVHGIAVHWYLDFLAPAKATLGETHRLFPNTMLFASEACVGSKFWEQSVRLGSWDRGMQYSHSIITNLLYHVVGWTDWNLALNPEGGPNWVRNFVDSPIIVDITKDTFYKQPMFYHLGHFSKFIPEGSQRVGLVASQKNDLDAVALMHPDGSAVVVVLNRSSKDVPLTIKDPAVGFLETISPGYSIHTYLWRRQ
Assay: Glucocerebrosidase;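 further: the screen sought inhibitors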
Details: purified enzyme, resorufin glucoside fluorescence (screen aimed at inhibitors), 20 min; series mostly up to 77 µM
Method in brief: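 Wild-type enzyme at 0.2 nM final in 50mM citric acid/KH2PO4, 10mM sodium taurocholate, 0.01% tween-20, pH 5.9, with resorufin beta-D-glucopyranoside at 30 uM final. Compounds titrated, 20 min at RT, red fluorescence read; AC50 from titration.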
Potency means the concentration at half of the fitted maximal effect.

Structure (SMILES) | Potency
O=C(CSc1ccc(Cl)cc1)OCc1nnc(-c2ccccc2)o1 | inactive: > 76.9 µM
CCCCN(CC)S(=O)(=O)N1CCC(C(=O)NCCCN2CCOCC2)CC1 | inactive: > 76.9 µM
NC(=O)c1ccc(-n2nnnc2SCc2ccc(F)cc2)cc1 | inactive: > 76.9 µM
CCCn1c(SCC(=O)Nc2ccccc2CC)nnc1C(C)C | inactive: > 76.9 µM
O=S(=O)(c1ccc2c(c1)nc(COc1ccc(Cl)cc1)n2CC1CCCO1)N1CCOCC1 (stereo not given) | inactive: > 76.9 µM
COc1ccc(CCNc2cc(=O)[nH]c(N)n2)cc1 | inactive: > 76.9 µM
CCn1c(CNC(=O)COc2c(C)cccc2C)nnc1SCC(=O)Nc1nccs1 | inactive: > 76.9 µM
CCn1c(SCC(=O)N2CCN(S(=O)(=O)c3ccccc3)CC2)nnc1-c1cccs1 | inactive: > 76.9 µM
c1nnc(NC2=NCCCCC2)s1 | inactive: > 76.9 µM
O=C(CN1CCN(CC(=O)c2ccc(F)cc2)CC1)Nc1ccccc1Cl | inactive: > 76.9 µM
CCOc1ccc2[nH]c(=O)c(CN(Cc3nnnn3CCc3ccccc3)CC3CCCO3)cc2c1 (stereo not given) | inactive
CS(=O)(=O)N1CCCC(C(=O)N2CCOCC2)C1 (stereo not given) | inactive: > 76.9 µM
O=C1Nc2ccccc2C12OCCCCO2 | inactive: > 76.9 µM
CC1(C)CC(NC(=O)C2CCCCC2C(=O)O)CC(C)(C)N1 (stereo not given) | inactive: > 76.9 µM
N#CC(C#SN)=C1CCCCC1 | inactive: > 76.9 µM
CCS(=O)(=O)N1CCN(c2ccccc2F)CC1 | inactive: > 76.9 µM
CCCCCCn1ccc(=N)cc1 | inactive: > 76.9 µM
COc1cccc2cc(C(=O)NC3CC(C)(C)NC(C)(C)C3)c(=O)oc12 | inactive: > 76.9 µM
COc1ccccc1-c1nnc(SCC(=O)OC(C)C)o1 | inactive: > 76.9 µM
Fc1ccc(Cn2nnnc2CN2CCN(C3CCCCC3)CC2)cc1 | inactive: > 76.9 µM
COCCCN(Cc1ccccn1)S(=O)(=O)Cc1ccccc1 | inactive: > 76.9 µM
Cc1occc1-c1nnc(SCC(=O)N2c3ccccc3CCc3ccccc32)n1C | inactive: > 76.9 µM
Cc1noc(C)c1CSc1nc2ccccc2[nH]1 | inactive: > 76.9 µM
O=C1CC(c2ccc(F)cc2)CC(O)=C1C=NCCN1CCN(C(=O)Nc2ccccc2)CC1 (stereo not given) | inactive: > 76.9 µM

Structure (SMILES) | Potency
O=C(COc1ccc(S(=O)(=O)N2CCCC2)cc1)NCc1ccco1 | inactive: > 76.9 µM
CCOC(=O)c1[nH]c(C)c(C(=O)Nc2ccc(C)c(F)c2)c1C | inactive: > 76.9 µM
CN1CCN(c2ccc(Cl)cc2NS(=O)(=O)c2ccccc2Cl)CC1 | active: 13 µM
O=S(=O)(c1ccccc1)N1CCN(CC(O)COc2ccc3c(c2)CCC3)CC1 (stereo not given) | inactive: > 76.9 µM
O=C1OCCC1Sc1ncnc2sccc12 (stereo not given) | inactive: > 76.9 µM
CC(=O)c1cccc(NC(=O)C=C(C)C)c1 | inactive: > 76.9 µM
c1ccc(CCn2nnnc2C(c2cccs2)N2CCOCC2)cc1 (stereo not given) | inactive: > 76.9 µM
CCNc1nc(SC(C(C)=O)C(C)=O)nc(N(C)C)n1 | inactive: > 76.9 µM
COc1ccccc1C(=O)NCCN1CCN(C(=O)c2ccccc2OC)CC1 | inactive: > 76.9 µM
c1cc(-n2cnnn2)ccc1NC1=NCCC1 | inactive: > 76.9 µM
Cc1nc(N2CCOCC2)[nH]c(=O)c1CCC(C)C | inactive: > 76.9 µM
CCOC(=O)c1ccc2nc(NC(=O)c3cccs3)sc2c1 | inactive: > 76.9 µM
N#Cc1cccc(NC(=O)COc2ccc(-n3ccnc3)cc2)c1 | inactive: > 76.9 µM
O=C(CCCN1C(=O)c2ccccc2C1=O)Oc1ccc(F)cc1 | inactive: > 76.9 µM
O=C(CSc1nnc(-c2ccccc2O)o1)Oc1ccc(OCc2ccccc2)cc1 | inactive: > 76.9 µM
Cn1nc(C(=O)NC2CCCCC2)c2ccccc2c1=O | inactive: > 76.9 µM
Cc1[nH]c2ccccc2c1C1=CN2CCS(=O)(=O)N=C2S1 | inactive: > 76.9 µM
CCOC(=O)C1CCCN(C(=O)COC(=O)C2=COCCO2)C1 (stereo not given) | inactive: > 76.9 µM
COc1ccc(CC(NC(C)=O)C(=O)NC2CCN(C(=O)NCc3ccccc3)CC2)cc1 (stereo not given) | inactive: > 76.9 µM
COC(=O)Cn1nc(-c2ccccc2)c2ccccc2c1=O | inactive: > 76.9 µM
CC(C)(C)n1ncc2c(=O)n(CC(=O)N3CCN(c4ccccc4)CC3)cnc21 | inactive: > 76.9 µM
CN(C)c1nc(N)nc(CSc2nnnn2C)n1 | inactive: > 76.9 µM
COc1ccccc1N1CCN(C(=O)c2cc(-c3ccc(Cl)c(Cl)c3)on2)CC1 | inactive: > 76.9 µM
FC(F)(F)c1cc(-c2cccs2)nc(NCc2ccco2)n1 | inactive: > 76.9 µM

Structure (SMILES) | Potency
CN(C)c1ccc(-c2nn3c(-c4ccccc4Cl)nnc3s2)cc1 | inactive: > 76.9 µM
O=c1[nH]c(-c2ccccc2O)nc2c1CCCC2 | active: 7.46 µM
O=C(O)c1cn[nH]c1-n1cnnn1 | inactive: > 76.9 µM
Cc1[nH]c2ccc(Br)cc2c(=O)c1CN1CCOCC1 | inactive: > 76.9 µM
Cn1c(C(=O)OCC(=O)NCc2cccs2)cc2sccc21 | inactive: > 76.9 µM
Cc1cccc2cc(C(c3nnnn3CC3CCCO3)N3CCc4ccccc4C3)c(=O)[nH]c12 (stereo not given) | inactive: > 76.9 µM
COc1ccc(N2C(=O)CCC(C(=O)NCc3ccccn3)C2c2ccc(OC)c(OC)c2)cc1 (stereo not given) | inactive: > 76.9 µM
CCOC(=O)c1c(C)n(C)c2ccc(O)c(CN3CCN(C)CC3)c12 | inactive: > 76.9 µM
Cc1ccc(-c2nn3c(C)nnc3s2)cc1NC(=O)c1cccs1 | inactive: > 76.9 µM
CCCC(c1nnnn1CC(=O)OCC)N(Cc1cc2ccc(C)cc2[nH]c1=O)C1CCCC1 (stereo not given) | inactive: > 76.9 µM
O=C(O)CCC(=O)Nc1ccccc1C(=O)NC1CCCCC1 | inactive: > 76.9 µM
COC(=O)c1cn(C(=O)c2cccs2)c2ccccc12 | inactive: > 76.9 µM
COC(=O)c1oc2ccc(Cl)cc2c1NC(C)=O | inactive: > 76.9 µM
COc1ccccc1-c1cc(N)n[nH]1 | inactive: > 76.9 µM
COCC(=O)c1[nH]c2ccccc2c1C | inactive: > 76.9 µM
Cc1nc2ccc(NC3=NCCCCC3)cc2s1 | inactive: > 76.9 µM
COc1cc(Br)cc(-c2nc3c(c(=O)[nH]c(=O)n3Cc3ccccc3)n2C)c1O | inactive: > 76.9 µM
CCN(CC)S(=O)(=O)c1ccc(-c2nnc(SCC(=O)N3CCc4ccccc43)o2)cc1 | inactive: > 76.9 µM
c1ccc(-c2ccc(OCCCn3cncn3)cc2)cc1 | inactive: > 76.9 µM
CCS(=O)(=O)Nc1ccc(-c2nnc(SCC(=O)c3cccc(OC)c3)o2)cc1 | active: 10.7 µM
COc1ccc(C(=O)O)cc1S(=O)(=O)N(C)CCc1cccnc1 | inactive: > 76.9 µM
O=C(NCC1CCCO1)C1CCN(C(=O)c2ccc(Cl)cc2)CC1 (stereo not given) | inactive: > 76.9 µM
CCC1CCCCN1C(=O)c1cc(-c2ccc(Cl)c(Cl)c2)on1 (stereo not given) | inactive: > 76.9 µM
O=C(COC(=O)CCC(=O)c1ccc(Cl)cc1)NCC1CCCO1 (stereo not given) | inactive: > 76.9 µM

Structure (SMILES) | Potency
Nc1ccc(NC(=O)c2cccs2)c(Cl)c1 | inactive: > 76.9 µM
Cc1nnc(Sc2nc3ccccc3o2)c2ccccc12 | inactive: > 76.9 µM
CC(C)N(CCNC(=O)C1CCN(S(=O)(=O)N2CCOCC2)CC1)Cc1ccccc1 | inactive: > 76.9 µM
CCSc1ncnc2c1oc1ccccc12 | inactive: > 76.9 µM
O=C(COC(=O)c1ccncc1)NCc1ccccc1 | inactive: > 76.9 µM
Cc1nc(N2CCCC2)c2ccsc2n1 | inactive: > 76.9 µM
Cc1nc2ccc(N)cc2c(=O)n1Cc1ccc(Cl)cc1 | inactive: > 76.9 µM
CCOC(=O)C1CCCN(C(=O)C2CCC(CNS(=O)(=O)c3ccc(NC(C)=O)cc3)CC2)C1 (stereo not given) | inactive: > 76.9 µM
COC(=O)c1cc(OC)c(OC)cc1NC(=O)C1CCC(=O)N1S(=O)(=O)c1ccc(C)cc1 (stereo not given) | inactive: > 76.9 µM
CN1C(=O)CSc2ccc(NC(=O)NCc3ccco3)cc21 | inactive: > 76.9 µM
CCc1nc(NCc2ccccn2)c2oc3ccccc3c2n1 | inactive: > 76.9 µM
CCNC(=O)CC1SC(=Nc2ccccc2C)N(C)C1=O (stereo not given) | inactive: > 76.9 µM
CCOc1ccc(OCCN2C(=O)NC3(CCCc4ccccc43)C2=O)cc1 (stereo not given) | inactive
CCCCn1cnc2c(cnn2-c2ccc(Cl)cc2)c1=O | inactive: > 76.9 µM
O=C(CSCc1ccccn1)Nc1ccccc1 | inactive: > 76.9 µM
CC(Oc1ccc2c(-c3ccccc3)cc(=O)oc2c1)C(=O)O (stereo not given) | inactive: > 76.9 µM
O=C(Nc1cccc(Cl)c1N1CCCCC1)c1ccc2c(c1)OCCO2 | inactive: > 76.9 µM
O=S1(=O)CC(O)C(NCc2cccnc2)C1 (stereo not given) | inactive: > 76.9 µM
Cc1ccc(C(=O)N2CCN(c3ccccc3)CC2)cc1S(=O)(=O)N1CCCC1 | inactive: > 76.9 µM
CCn1c(SCc2cc(=O)[nH]c3ccccc23)nc2c1c(=O)n(C)c(=O)n2C | inactive: > 76.9 µM
Cc1ccc(Nc2nc(N)nc(CSc3nccn3C)n2)cc1 | inactive: > 76.9 µM
COc1ccc(C(CNC(=O)Cn2[nH]c(=O)c3ccccc3c2=O)N2CCCC2)cc1 (stereo not given) | inactive: > 76.9 µM
O=C(Oc1cccc(-n2cnnn2)c1)C1CCCCC1 | inactive: > 76.9 µM
